Test results taken from PubChem BioAssay AID1508623 (National Center for Advancing Translational Sciences (NCATS), 2021).
Screen size: about 48,000 compounds; about 450 (0.94%) were called active. Roughly 19% stayed inconclusive and do not appear here. The call rests on the fitted dose curve; in most records, active means well fitted inhibition curve with a large enough effect; inconclusive means small, poorly fitted or top-dose-only effect; inactive means no such curve, though single readings can be large or run the other way. This is one part of the list.

assay: Primary qHTS for Identification of Small Molecule Inhibitors of Huntingtin Promoter Activity; conditions: HEK293 HTT promoter firefly luciferase reporter (activity 0% = vehicle and -100% = no light), 24 h; series mostly up to 57.5 µM; activity change, negative = inhibition: at the top concentration; further: nearly all actives have a fitted effect of over 50% in size
From the text: Assay Provider: Russell L. Margolis M.D.
Department Neurology, Johns Hopkins University School of Medicine, Baltimore, MD
Huntington's Disease (HD) is a neurodegenerative disorder caused by a CAG repeat expansion in exon 1 of huntingtin (HTT). While there are currently no disease-modifying treatments for HD, recent efforts have focused on development of nucleotide-based therapeutics to lower HTT expression. As an alternative to siRNA or oligonucleotide methods, we hypothesized that suppression of HTT expression might be accomplished by small molecules that either (1) directly decrease HTT expression by suppressing HTT promoter activity or (2) indirectly decrease HTT expression by increasing the promoter activity of HTT-AS, the gene antisense to HTT that appears to inhibit expression of HTT.
We developed and employed a high throughput screen for modifiers of HTT and HTT-AS promoter activity using luminescent reporter HEK293 cells; of the 52,041 compounds tested, we identified 898 replicable hits. We used a rigorous stepwise approach to assess compound toxicity and the capacity of the compounds to specifically lower huntingtin protein in 5 different cell lines, including HEK293 cells, HD lymphoblastoid cells, mouse primary neurons, HD iPSCs differentiated into cortical-like neurons, and HD hESCs. We found no compounds which were able to lower huntingtin without lowering cell viability in all assays, though the potential efficacy of a few compounds at non-toxic doses could not be excluded.
SEQUENCE No. (1, 2, 3, etc.); […] (e.g., Cells, Incubation, Reagent, etc.); VALUE and DESCRIPTION.
1; Reagent; 4 uL; 2,500 Hek293 luciferase reporter cells per wells
3; Compound; 23 nL; Control inhibitor / compound library
5; Reagent; 2.5 uL; Firefly Luc reagent; Dual-Glo Luciferase Reporter Assay System (Promega)
6; Time; 10 min; room temperature incubation
7; Detection; Luminescence; FLuc
NOTES (numbers refer to sequence above)
1; High-throughput screening, measuring luminescence from a Hek293 luciferase reporter, was performed in 1,536 well white-walled tissue-culture treated plates. 2,500 cells were plated in 4 µL of Opti-MEM per well using a Multidrop Combi Reagent Dispenser (ThermoFisher).
2; Assay plates were cultured for 24 hours.
3; Control inhibitor (PTC124; final concentration of 50 uM) and compound library (at final concentrations of 460 nM - 57.5 uM) were added to the assay plate using the Kalypsis Pintool Robotic System equipped with 1536 pinheads.
4; Cells were then incubated for 24 hours at 37 degrees C prior to luminescence measurements.
5; In all cases, luminescence was measured using the Dual-Glo Luciferase Reporter Assay System (Promega) following the manufacturer's instructions.
6; Room temperature incubation.
7; Luminescence signal was obtained using the PerkinElmer ViewLux plate reader. Results were normalized to vehicle control (0% activity) and zero RLU (-100% activity).

Row | SMILES | activity change, negative = inhibition
1 | COc1ccc(-n2c(=O)c3sc4ccccc4c3n(C)c2=O)cc1 | inactive: 1.97%
2 | CCOC(=O)Cc1ccc(NC(=O)N2CCSc3ccccc32)cc1 | inactive: -1.77%
3 | Cc1ccc(-c2nc(CS(=O)CC(=O)NCc3ccccc3Cl)c(C)o2)cc1 (stereo unspecified) | inactive: -5.87%
4 | CCCN(CCC)CCCNC(=O)C1CCCN(Cc2nc(-c3ccc(Cl)cc3)oc2C)C1 (stereo unspecified) | inactive: -20.8%
5 | COc1ccccc1NC(=O)CSC1=Nc2ccccc2C2=NC(CCC(=O)NCc3ccco3)C(=O)N12 (stereo unspecified) | inactive: -9.94%
6 | O=c1ccc2cc(S(=O)(=O)Nc3ccc(F)c(Cl)c3)ccc2[nH]1 | inactive: -18.1%
7 | CCOc1ccc2nc(SCC(=O)Nc3ccc(F)cc3)nc(-c3ccccc3)c2c1 | inactive: -1.16%
8 | COc1cccc(CNC(=O)Cc2c(C)c3c(cc(C)c4c(C)c(C)oc43)oc2=O)c1 | inactive: -0.83%
9 | Cn1nnc2c(NCc3ccc(Cl)cc3)ncnc21 | inactive: -10.5%
10 | COc1ccc(OC)c(NC(=O)C2Cc3ccccc3CN2S(=O)(=O)c2ccc(F)cc2)c1 (stereo unspecified) | inactive: -26.7%
11 | CC1=C(C(=O)Nc2ccc(Cl)cc2)C(c2ccccc2F)n2nc(SCc3cccc(Cl)c3)nc2N1 (stereo unspecified) | inactive: -3.6%
12 | O=C(Nc1nc2ccccc2n1CCN1CCOCC1)c1cccc([N+](=O)[O-])c1 | inactive: -0.354%
13 | Cc1ccc(Cn2c(=O)n(CCc3ccc(Cl)cc3)c(=O)c3ccccc32)cc1 | inactive: -11.5%
14 | Cc1ccc(-n2ncc3c(NC(C)c4ccccc4)ncnc32)cc1 (stereo unspecified) | inactive: -11.2%
15 | COc1ccc(NC(=O)Cn2c(=O)n(Cc3ccccc3OC)c(=O)c3cccnc32)cc1Cl | inactive: -27.1%
16 | Cc1sc2ncn(CC(=O)Nc3ccc(C(C)C)cc3)c(=O)c2c1S(=O)(=O)N1CCN(c2ncccn2)CC1 | inactive: -19.6%
17 | CC1(C)N=C(SCc2ccccc2Cl)c2ccccc2N1 | inactive: -7.27% [at 11.5 µM]
18 | Cc1ccc(S(=O)(=O)c2nnn3c2nc(NC(C)C)c2cc(Cl)ccc23)cc1C | inactive: -11.3%
19 | Cc1cccc(-c2noc(-c3cccnc3NCc3ccc(Cl)cc3)n2)c1 | inactive: 6.3%
20 | COc1ccc2c(c1)sc1ncc(C(=O)NCc3ccccc3F)c(=O)n12 | inactive: 7.13%
21 | O=C(CCSCc1cccc(Cl)c1)N1CCN(c2ccc(Cl)cc2)CC1 | inactive: -11.9%
22 | Cc1ccccc1C(=O)N1CC(=O)Nc2ccc(Cl)cc2C1c1ccccc1 (stereo unspecified) | inactive: -26.3%
23 | CCOc1ccc(NS(=O)(=O)c2ccc(C(=O)N(C)C)s2)cc1 | inactive: -53.5%
24 | O=C(c1cccc(Cl)c1)N1c2nc(-c3ccco3)nn2C2(CCCCC2)[C@@H]2CCCC[C@@H]21 | inactive: -5.57%
25 | COc1ccc(CCNC(=O)CCCCn2c(=O)c3ccccc3n(CC(=O)Nc3c(C)cccc3C)c2=O)cc1OC | inactive: -6.93%
26 | C#CCn1c(=NC(=O)c2ccc3c(c2)OCCO3)sc2cc(OC)c(OC)cc21 | inactive: -4.11%
